Reference: paper PMC6946799
These are yes or no findings as the source states them, for the method shown. Binding seen in cells or lysates may run through a third protein. Some entries that bind do so weakly or less than the wild type.

Amino acid sequences for entries named in this document (tags omitted).
UniProt Q0PC74: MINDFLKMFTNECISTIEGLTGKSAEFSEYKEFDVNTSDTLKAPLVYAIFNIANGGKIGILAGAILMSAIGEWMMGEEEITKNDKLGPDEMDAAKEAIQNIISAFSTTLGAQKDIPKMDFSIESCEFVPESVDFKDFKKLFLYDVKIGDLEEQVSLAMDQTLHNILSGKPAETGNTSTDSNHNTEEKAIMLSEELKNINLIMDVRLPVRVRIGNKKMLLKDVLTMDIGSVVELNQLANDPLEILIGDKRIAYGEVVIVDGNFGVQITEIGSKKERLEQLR
UniProt Q0PC73: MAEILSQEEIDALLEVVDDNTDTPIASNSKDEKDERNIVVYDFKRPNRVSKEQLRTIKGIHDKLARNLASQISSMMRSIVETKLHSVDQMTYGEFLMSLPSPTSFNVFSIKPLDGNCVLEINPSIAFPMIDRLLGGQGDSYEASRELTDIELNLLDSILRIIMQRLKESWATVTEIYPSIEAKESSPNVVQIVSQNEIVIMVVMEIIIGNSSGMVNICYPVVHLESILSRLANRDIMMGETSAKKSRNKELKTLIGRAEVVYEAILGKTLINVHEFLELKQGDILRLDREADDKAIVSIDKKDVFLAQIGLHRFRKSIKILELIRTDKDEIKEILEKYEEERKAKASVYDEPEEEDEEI
UniProt Q0PBI9: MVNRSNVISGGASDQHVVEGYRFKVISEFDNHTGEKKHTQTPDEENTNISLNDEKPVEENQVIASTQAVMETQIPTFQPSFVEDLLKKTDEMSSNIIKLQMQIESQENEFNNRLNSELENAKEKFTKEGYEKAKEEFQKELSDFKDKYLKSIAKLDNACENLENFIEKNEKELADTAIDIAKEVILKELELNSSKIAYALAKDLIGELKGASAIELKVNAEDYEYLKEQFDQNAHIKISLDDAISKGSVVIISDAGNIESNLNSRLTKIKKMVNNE
UniProt O32370: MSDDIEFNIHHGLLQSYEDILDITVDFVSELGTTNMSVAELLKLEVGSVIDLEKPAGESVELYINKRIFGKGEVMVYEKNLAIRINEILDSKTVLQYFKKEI
UniProt Q0PBJ0: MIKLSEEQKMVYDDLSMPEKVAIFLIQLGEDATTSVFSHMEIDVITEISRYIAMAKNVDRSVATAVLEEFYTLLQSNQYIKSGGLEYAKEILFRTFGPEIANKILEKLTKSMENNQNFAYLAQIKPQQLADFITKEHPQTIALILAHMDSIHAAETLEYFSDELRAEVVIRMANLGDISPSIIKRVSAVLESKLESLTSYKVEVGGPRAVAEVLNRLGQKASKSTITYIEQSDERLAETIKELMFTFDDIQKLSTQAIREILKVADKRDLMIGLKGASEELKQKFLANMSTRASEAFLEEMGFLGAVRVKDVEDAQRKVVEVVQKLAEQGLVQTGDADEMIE
UniProt Q0PBU4: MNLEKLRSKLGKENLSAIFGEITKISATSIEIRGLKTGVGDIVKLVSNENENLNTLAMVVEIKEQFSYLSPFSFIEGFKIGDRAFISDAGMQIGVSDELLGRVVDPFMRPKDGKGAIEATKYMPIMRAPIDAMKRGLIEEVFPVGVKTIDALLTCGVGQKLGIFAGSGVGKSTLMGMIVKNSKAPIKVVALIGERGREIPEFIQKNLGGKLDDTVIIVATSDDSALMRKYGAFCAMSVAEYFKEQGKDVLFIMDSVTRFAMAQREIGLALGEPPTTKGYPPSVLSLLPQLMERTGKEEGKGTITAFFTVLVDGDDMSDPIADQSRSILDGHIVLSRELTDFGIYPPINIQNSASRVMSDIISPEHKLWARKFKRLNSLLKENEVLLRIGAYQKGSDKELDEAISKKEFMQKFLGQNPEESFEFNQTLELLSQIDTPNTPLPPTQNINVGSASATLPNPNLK
UniProt Q0PBJ1: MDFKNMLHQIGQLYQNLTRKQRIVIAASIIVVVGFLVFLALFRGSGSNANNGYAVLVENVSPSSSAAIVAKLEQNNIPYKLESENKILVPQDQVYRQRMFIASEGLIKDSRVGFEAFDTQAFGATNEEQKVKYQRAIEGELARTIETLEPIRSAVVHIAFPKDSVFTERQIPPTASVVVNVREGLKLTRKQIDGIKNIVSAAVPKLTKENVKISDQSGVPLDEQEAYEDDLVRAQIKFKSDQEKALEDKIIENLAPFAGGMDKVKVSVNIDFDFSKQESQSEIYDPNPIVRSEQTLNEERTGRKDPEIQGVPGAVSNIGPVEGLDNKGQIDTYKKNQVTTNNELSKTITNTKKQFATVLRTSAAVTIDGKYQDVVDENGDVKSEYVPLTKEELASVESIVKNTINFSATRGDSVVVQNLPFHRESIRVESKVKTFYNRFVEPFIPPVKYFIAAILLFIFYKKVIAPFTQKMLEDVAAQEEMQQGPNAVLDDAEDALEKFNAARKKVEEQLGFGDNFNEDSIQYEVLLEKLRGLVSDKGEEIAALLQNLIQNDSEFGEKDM

Tests used:
Test in all cases: co-IP; in vivo: intact C. jejuni cells cross-linked with 0.1% formaldehyde (30 min, 37°C), osmotic lysis, 1% Triton X-100 solubilisation; FLAG-tagged bait expressed from a plasmid in the respective single mutant (and double mutants lacking FliN, FliH or another C-ring protein) precipitated with anti-FLAG M2 affinity resin overnight at 4°C, washed with RIPA buffer; native preys detected by immunoblot with specific antisera
[1] = target: FLAG-FliY (Campylobacter jejuni 81-176) (UniProt Q0PC74)
[2] = target: FliM-FLAG (Campylobacter jejuni 81-176) (UniProt Q0PC73)
[3] = target: FLAG-FliH (Campylobacter jejuni 81-176) (UniProt Q0PBI9)
[4] = target: FLAG-FliN (Campylobacter jejuni 81-176) (UniProt O32370)
[5] = target: FliG-FLAG (Campylobacter jejuni 81-176) (UniProt Q0PBJ0)
[6] = target: FLAG-FliI (Campylobacter jejuni 81-176) (UniProt Q0PBU4)

Row | Substance | binding [1] | binding [2] | binding [3] | binding [4] | binding [5] | binding [6]
1 | FliF (from UniProt Q0PBJ1 1-560) | binds weakly | binds weakly | – | – | – | –
2 | FliN (from UniProt O32370 1-102) | – | no binding | no binding | – | – | –
3 | FliM (from UniProt Q0PC73 1-359) | binds | – | binds | no binding | binds weakly | –
4 | FliG (from UniProt Q0PBJ0 1-342) | binds weakly | binds weakly | – | – | – | –
5 | FliY (from UniProt Q0PC74 1-280) | – | binds | – | binds | – | –
6 | FliH (from UniProt Q0PBI9 1-276) | – | binds | – | no binding | – | binds
